According to publication PMC12136788:
The list shows a part of the results.

T1: UNK ZnF1-3 (human, UniProt Q9C0B0 31-174)
T1 sequence: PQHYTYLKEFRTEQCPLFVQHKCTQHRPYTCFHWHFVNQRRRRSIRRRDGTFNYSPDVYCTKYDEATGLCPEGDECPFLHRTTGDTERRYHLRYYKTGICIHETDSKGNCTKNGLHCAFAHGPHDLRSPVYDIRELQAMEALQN

B1: chr22:32879901:32879902:+_ENSG00000100225_ENST00000397426|hu_mus|hu_hu_hu_mus_False|1_28 (ssRNA)
RNA: GGGAGUUCUACAGUCCGACGAUCCUCUUCCAUACUCAUGGCAUCCUGAAUUGACUCAGCUUCAACAUUUUGACUAGGCCCUUCCAUACUGUCAUCAGUCCAGGCAUCAGACUGGGCGGCCUGUCCUUGGGAUGAAUCACUUGGCAACAGAGGAUUGAGCAUCA
B2: chr5:65459698:65459699:+_ENSG00000153914_ENST00000334121|hu_mus|FALSE|FALSE (ssRNA)
RNA: GGGAGUUCUACAGUCCGACGAUCCAUUACUUCUUCUAACUCCUUAGCUGCAGCCUGAGGUGUCAUCUCAGGAGGUUUUACUAUUGCAUUGUUGGAGUGAUUUAUUUUCAGUGGCCUGUCUCCAAACAUAACUCCAUUAAAAGCCAACAGAGGAUUGAGCAUCA
B3: chr18:56819859:56819860:+_ENSG00000166562_ENST00000588875|hu_mus|hu_hu_hu_mus_True|8_18 (ssRNA)
RNA: GGGAGUUCUACAGUCCGACGAUCAACCUUGAUUACUCUGUGAACUAUCGGAAUGUCUCUUCCUUCAACCUUAAAAACAACUAUUUCACCAGCUCUGAUGGGGUCCUCCCGGAAAUUUGUGAGGAACAGGAGGUCUCCUCUGUGCAACAGAGGAUUGAGCAUCA
B4: chr2:9570881:9570882:+_ENSG00000119203_ENST00000238112|hu_mus|hu_hu_hu_mus_False|8_8 (ssRNA)
RNA: GGGAGUUCUACAGUCCGACGAUCACUUGUCUUCUGAAGGAACCAGGGCAGGGCUCCACAGUGAUCCAAAUGGAAAUGACUGAUCAACAGAAGGUCGAUCUCAGCUGGGUCGAUAAGGUCAAUGUAAGGAAGAGCAUCCAUUCCCAACAGAGGAUUGAGCAUCA
B5: 78600971_78602308_1345_CDS_ENSG00000149256_ENST00000278550|human|control|control (ssRNA)
RNA: GGGAGUUCUACAGUCCGACGAUCCGGAGGAGAGUACACUGUGCUGGACGUCAGUGGGUACCCUGGUGAUGUGGUGCAGAAGAGCGGGGAGGUGCCUCCAGGCUUGAAGAGGAAGUGCCCGUCACUGUAAGCCCCAUCAUGGCGCAACAGAGGAUUGAGCAUCA
B6: chr1:118462952:118462953:-_ENSG00000196505_ENST00000369442|hu_hu|motif|central (ssRNA)
RNA: GGGAGUUCUACAGUCCGACGAUCGGCAUGAGUCACCCCAGCUUGGUAGUGUAUCCACAUCCACAAACUGGGAAGGUGCACCGGAGGGAUCCAUGGAAUGGGAACUUUGAUUUGUCUUUUCCCAAAAUCCUCAGCAAUUCAAUACAACAGAGGAUUGAGCAUCA
B7: chr2:216981417:216981418:+_ENSG00000079246_ENST00000392132|hu_hu|hu_hu_hu_mus_True|58_98 (ssRNA)
RNA: GGGAGUUCUACAGUCCGACGAUCCUGAUACUGGUCCCCACCAGAAAGGGCAUUAUCAGUGCCAUCUGUGCCAUAGAGGACUAAAGCAAUCUCAUCUUUGCUCUCCGAAAAUACCUGUCGUUGGACAAACAUAGUCAUCACUUUCAACAGAGGAUUGAGCAUCA
B8: chr4:175180916:175180917:-_ENSG00000164117_ENST00000503293|hu_hu|motif|central (ssRNA)
RNA: GGGAGUUCUACAGUCCGACGAUCAUUAAAGGUGAGGCUGCCUUCAUCCAGCUGCAUAUACAAUUUUCUAAAAGAAAAUCCGGAAGGUGGGUUCUUAUUGUAUAUGGAACAGUGACCCCAAGUGGAUUUGCACAACCCUUGCCACAACAGAGGAUUGAGCAUCA
B9: chr15:80414081:80414082:+_ENSG00000086666_ENST00000558494|hu_hu|FALSE|FALSE (ssRNA)
RNA: GGGAGUUCUACAGUCCGACGAUCUGGUAAAGAUUCAGACAGACUACUGACAGAGGUUGCAGGUGGGCUUAUUCUACCAUUACUACUAUUCUGUCUUUGAAGAUGUUCUUUAUAGCAUACUGAACACAUGCCAUUUGUACGAGGCAACAGAGGAUUGAGCAUCA
B10: chr11:77333689:77333690:-_ENSG00000074201_ENST00000263309|hu_mus|FALSE|FALSE (ssRNA)
RNA: GGGAGUUCUACAGUCCGACGAUCCUCCAACGUGGCUUGCCCUUCCGCUGUUAAAUGGGAUAGUCCUUCUUCAUAGGUAUAAAAUGUAGGGAUGUCCCCUUGUCCUUGUUCAUGUGCCUCCACAUCAUACUCCUCUCCAUCAUACAACAGAGGAUUGAGCAUCA
B11: chr5:71494600:71494601:+_ENSG00000131711_ENST00000296755|hu_hu|motif|central (ssRNA)
RNA: GGGAGUUCUACAGUCCGACGAUCCAUUGUAUCGAAUAACACUGAGGCACGGAAGCCAUAGGGCUCUGCGGAUGCUGCAUCGGUUGGUGGAGAAGAGGAACUGUGGCAAGUUGCUGUUUUCUCUUUGACUGCAGAGGUAGAAUCCAACAGAGGAUUGAGCAUCA
B12: 35991445_35991821_4851_CDS_ENSMUSG00000061607_ENSMUST00000082337|mouse|control|control (ssRNA)
RNA: GGGAGUUCUACAGUCCGACGAUCGAAGCAACCAGCCUUUCGGGACUGGUACAGCCAGUUCAGGGACAGGAUGGGAAUUCCCUUCCCCAGGGCACACAAGAACUUGACUGUCCUGCGGAUGCGAUCAGUAACUAAGUGGGAGGCCAACAGAGGAUUGAGCAUCA
B13: chr4:4237396:4237397:-_ENSG00000132406_ENST00000382753|hu_mus|FALSE|FALSE (ssRNA)
RNA: GGGAGUUCUACAGUCCGACGAUCAAAGAACAUAAGUUGAAAAAUGUUAAAAACCCAAUAACUUAUAUAAUGAUAAAACCCAGAGUAACAAGAAACCAUAAGAUACUUCCGUUUGGUCCUCUUCUUAAAAAACUAUGACAAAUACAACAGAGGAUUGAGCAUCA
B14: 2809365_2809651_1311_CDS_ENSG00000167978_ENST00000301740|human|control|control (ssRNA)
RNA: GGGAGUUCUACAGUCCGACGAUCAGUAUCGGAGGAGGAAGCAGAGUCAGCAGAAGUUGAACGGUGGGCCCGGCGGCUCUUGGGGGCUGGUGUUGUACUUCGAGACCGCUUUCGCUUUUUGUCCUUAGAUUUACGUUUGCUCUUCAACAGAGGAUUGAGCAUCA

target: T1, UNK ZnF1-3; test: nsRBNS (natural sequence RNA bind-n-seq); RBNS binding buffer (assumed for nsRBNS): 25 mM Tris pH 7.5, 150 mM KCl, 3 mM MgCl2, 0.01% Triton X-100, 500 ug/ml BSA, 20 U/ml SUPERase-In, 4 C; UNK is unkempt and MSI1 is Musashi-1; names of the RNAs are library labels; protein concentration not given here; high values mean tight binding

Binder | binding signal [enrichment R]
B1 | 0.984
B2 | 0.871
B3 | 0.757
B4 | 1.65
B5 | 1.22
B6 | 0.956
B7 | 1.08
B8 | 1.81
B9 | 0.894
B10 | 0.976
B11 | 1.29
B12 | 1.25
B13 | 2.22
B14 | 1.46
